Measurements reported in PubChem BioAssay AID488969 (Vanderbilt High Throughput Screening Facility, 2010).
Several values for one entry are separate records, joined by “and”; a condition that tells them apart may be missing. Equal values may be shown once. Over roughly 110,000 compounds, “z-score” has its median near -0.1; the highest 2% begin near 2. Some of the results follow.

What follows are molecules tested against Metabotropic glutamate receptor 8 (Rattus norvegicus) (UniProt P70579) (assay: mGluR8 Gi/Go-coupled signaling modulation – cell-based, rat, thallium flux, HTS, primary screen (AID 488969)). Conditions: HEK293 rat mGluR8, GIRK (G protein-gated inwardly rectifying potassium channel) thallium flux, FluoZin2; at 10 µM; stronger effect = higher value; submaximal glutamate (EC20) added with thallium.
UniProt P70579, sequence (P70579 whole entry, looked up): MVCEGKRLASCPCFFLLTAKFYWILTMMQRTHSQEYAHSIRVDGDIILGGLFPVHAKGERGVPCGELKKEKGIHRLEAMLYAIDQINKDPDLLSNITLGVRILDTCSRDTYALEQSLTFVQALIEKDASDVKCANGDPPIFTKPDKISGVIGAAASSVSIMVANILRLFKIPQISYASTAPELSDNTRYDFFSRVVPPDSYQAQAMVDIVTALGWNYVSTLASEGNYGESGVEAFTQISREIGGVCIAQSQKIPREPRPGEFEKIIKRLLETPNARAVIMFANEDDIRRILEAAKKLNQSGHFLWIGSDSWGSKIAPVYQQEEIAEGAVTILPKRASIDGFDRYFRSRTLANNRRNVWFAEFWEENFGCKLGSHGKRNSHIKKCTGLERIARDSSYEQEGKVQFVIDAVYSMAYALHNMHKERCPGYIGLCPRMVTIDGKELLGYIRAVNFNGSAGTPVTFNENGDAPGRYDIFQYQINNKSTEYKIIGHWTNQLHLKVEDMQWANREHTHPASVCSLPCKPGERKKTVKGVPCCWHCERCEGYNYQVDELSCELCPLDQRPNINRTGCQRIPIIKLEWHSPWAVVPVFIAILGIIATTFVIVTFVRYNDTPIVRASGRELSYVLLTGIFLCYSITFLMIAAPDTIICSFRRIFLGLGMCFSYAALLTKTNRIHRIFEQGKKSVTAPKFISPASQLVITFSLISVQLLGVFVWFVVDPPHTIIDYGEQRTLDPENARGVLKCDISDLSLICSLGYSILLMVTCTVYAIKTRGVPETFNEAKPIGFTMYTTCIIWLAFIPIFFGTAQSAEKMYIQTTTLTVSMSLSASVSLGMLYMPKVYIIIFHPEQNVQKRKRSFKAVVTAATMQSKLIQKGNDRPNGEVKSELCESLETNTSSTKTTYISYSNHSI

First: COc1ccc(-c2cccc(C(=O)Nc3ccc(OC)c(OC)c3)c2)cc1
Second: CCc1ccc2[nH]c(=O)c(CN(Cc3ccccc3OC)C(=O)Nc3ccccc3OC)cc2c1
The z-score of the first is lower: -0.0958 for the first, 0.51 for the second.

Compared with `O=C(CC(=O)c1ccccc1)Nc1cc(C(F)(F)F)ccc1Cl`, `O=C(NC(=S)NCc1cccnc1)c1ccccc1` is lower in z-score: 0.107 for the first, -1.53 for the second.

First: CCOc1ccccc1C(=O)N[C@H](C(=O)OCc1cc([N+](=O)[O-])cc2c1OCOC2)C(C)C
Second: CC(C)NC(=O)c1onc(CSc2cccc3ccccc23)c1C(=O)O
The z-score of the first is higher: 0.0676 for the first, -0.135 for the second.

Compared with `O=C(CCc1ccccc1)NC(NC(=S)Nc1cccc(Cl)c1)C(Cl)(Cl)Cl` (centres undefined), `Cn1c(SCC(=O)Nc2ccccc2)nnc1-c1ccc(NC(=O)CCc2ccccc2)cc1` is lower in z-score: 0.0798 for the first, -0.164 for the second.

First: CCOc1ccc(N=Cc2c(O)n(-c3cccc(C)n3)c(=O)c3ccccc23)cc1
Second: CCC(=O)c1ccc(OCC(O)CNC(C)c2ccccc2)cc1 (centres undefined)
The z-score of the first is lower: -0.957 for the first, 0.0194 for the second.

First: COc1ccc(OC)c(NC(=O)C2CCCCC2)c1
Second: CCOC(=O)c1[nH]c2ccc(OC)cc2c1NC(=O)N1CCOCC1
The z-score of the first is lower: -0.385 for the first, 0.0438 for the second.

Going from `CCOC(=O)c1nc(C)n(-c2ccc(Cl)cc2Cl)n1` to `Cc1nc2nc(-c3ccc(Cl)cc3)nn2c(C)c1Cl`, the z-score rises from -0.169 to 0.322.

First: Cc1ccc(C(C)C)cc1S(=O)(=O)NCc1cccnc1
Second: Cc1cc(NS(=O)(=O)c2ccc(CC(C)C)cc2)no1
The z-score of the first is higher: 1.17 for the first, -0.406 for the second.

Going from `O=C(NCc1ccco1)c1cccc(S(=O)(=O)N2CCCCC2)c1` to `O=C(c1ccc(Cl)c(S(=O)(=O)NCc2ccco2)c1)N1CCN(c2ccccc2F)CC1`, the z-score rises from -0.125 to -0.0543.

Compared with `CCOc1ccccc1NC(=O)NC1(C(=O)N2CCOCC2)CCCCC1`, `CCOc1ccc2ccccc2c1C(=O)N1CCOCC1` is higher in z-score: -0.0704 for the first, 0.413 for the second.

Compared with `Cc1ccc(CNC(=O)COC(=O)CCCOc2ccc(Cl)cc2Cl)cc1`, `CCOC(=O)C1CCN(C(=O)COC(=O)CCOc2ccc(C)cc2)CC1` is higher in z-score: -0.31 for the first, -0.15 for the second.

Going from `COC(=O)CSc1nnc(CNc2nc(-c3ccccc3)cs2)n1C` to `Cc1ccc(C(=O)CSc2nnc(Cn3nnc4ccccc43)n2C)cc1`, the z-score rises from -0.933 to 1.03.

First: O=C(Nc1ncc(Cc2ccccc2)s1)C1CCCO1 (centres undefined)
Second: O=C(NCCCN1CCOCC1)c1ccc2c(=O)n(CCc3ccccc3)c(=O)[nH]c2c1
The z-score of the first is lower: -0.132 for the first, 1.15 for the second.

Going from `COc1ccc(CC(=O)N2N=C(C)CC2(O)C(F)(F)F)cc1` (centres undefined) to `C=CCN(C(=O)Nc1ccccc1)C1CC(=O)N(c2ccc(OC)cc2)C1=O` (centres undefined), the z-score falls from -0.0924 to -0.258.

Compared with `N#Cc1cc(Cl)c(N2CCOCC2)cc1C#N`, `CCNC(=S)Nc1cc(OCC)c(N2CCOCC2)cc1OCC` is higher in z-score: -0.177 for the first, -0.0264 for the second.

First: CC1(C)CC(NC(=O)CCC2CCCC2)CC(C)(C)N1
Second: CN(C(=O)Cn1c(=O)n(CCCCC(=O)NC2CCCC2)c(=O)c2ccccc21)C1CCCCC1
The z-score of the first is higher: 0.678 for the first, -0.115 for the second.

First: CCOC(=O)c1c(/N=C/C2=C(O)CCCC2=O)sc(C)c1C
Second: CCOC(=O)CSc1ccc(-c2nc3cc(C)c(C)cc3[nH]2)cn1
The z-score of the first is lower: 0.00201 for the first, 0.298 for the second.

First: O=C(c1c(Cl)cccc1Cl)N1CCN(c2ccccn2)CC1
Second: CN1CCN(Cc2cc(COCc3ccccc3)c3cccnc3c2O)CC1
The z-score of the first is higher: 0.0466 for the first, 6.04e-05 for the second.

Going from `O=C(O/N=C1\CCCCC1c1ccc([N+](=O)[O-])cc1[N+](=O)[O-])c1c(F)cccc1F` (centres undefined) to `O=C(Nc1ccc(F)cc1)C1CCCN(S(=O)(=O)c2cccc3cccnc23)C1` (centres undefined), the z-score rises from -0.523 to 0.729.

Going from `CC1CCN(c2cc(=O)n(C3CCCCC3)c(=O)[nH]2)CC1` to `CC(=O)N1CCC(N(C(=O)Nc2ccc(F)cc2)C2CCCC2)CC1`, the z-score rises from -0.0796 to 0.292.

Compared with `CC1=CC(C)(C)NC(=S)N1c1ccc2ccccc2c1`, `Cn1c(SCc2ccc(C#N)cc2Cl)nc2ccccc21` is higher in z-score: -0.275 for the first, -0.224 for the second.

First: N#Cc1ccccc1N=C1CCCN1Cc1ccccc1
Second: Cc1ccc(CSc2ncnc3c2cnn3Cc2ccccc2)cc1C
The z-score of the first is lower: -1.57 for the first, -0.239 for the second.

First: Cn1nnc(NC(=O)CSc2nnnn2-c2ccc(F)cc2)n1
Second: CCN(CC)c1ccc(C=C(c2nnnn2-c2ccc(C)cc2)c2nnnn2-c2ccc(C)cc2)cc1
The z-score of the first is higher: 0.0243 for the first, -0.132 for the second.

Compared with `CC1CCCN(c2nc3ccccc3nc2C(C#N)S(=O)(=O)c2cccs2)C1` (centres undefined), `COc1ccc(/C=N/N2CCN(c3ccncc3S(=O)(=O)N3CCCCC3)CC2)cc1` is higher in z-score: -1.84 for the first, -0.0781 for the second.

Going from `Cc1cccc(CN(CC(=O)N/N=C/c2ccco2)S(=O)(=O)c2ccc(Cl)cc2)c1` to `Cc1cc(S(=O)(=O)NCC(c2ccccc2)c2ccccc2)ccc1-n1cnnn1`, the z-score falls from 0.848 to 0.0424.

Going from `Cn1c(=O)c2c(nc(NCCCN3CCOCC3)n2Cc2ccc(Cl)c(Cl)c2)n(C)c1=O` to `Cc1ccnc(SCCn2c(N3CCOCC3)nc3c2c(=O)[nH]c(=O)n3C)n1`, the z-score rises from -0.164 to -0.0964.

Compared with `Cc1onc(-c2ccccc2)c1C(=O)NC(=S)NNC(=O)c1ccccc1O`, `N/C(=N\c1nc2ccccc2o1)NC(=O)C(Cc1ccccc1)N1C(=O)c2ccccc2C1=O` (centres undefined) is higher in z-score: -0.543 for the first, 0.579 for the second.

Going from `Cc1nc(NC(=O)c2ccccc2)sc1-c1csc(Nc2ccc(F)cc2)n1` to `O=C(Nc1nc2ccc(F)cc2s1)C1=NN(c2ccccc2)C(=O)CC1`, the z-score rises from -0.0195 to 0.185.

First: COc1ccccc1-c1nc(SCC(=O)O)n[nH]1
Second: CC(C)(C)NC(=O)NC(=O)COc1ccccc1C#N
The z-score of the first is lower: 0.65 for the first, 0.934 for the second.

First: CC1CCc2nc3ccc(S(=O)(=O)N4CCC(C(=O)NC5CCCC5)CC4)cc3c(C(=O)O)c2C1 (centres undefined)
Second: CCOC(=O)Cc1csc(NC(=O)CSc2nnc(-c3ccc(NS(=O)(=O)CC)cc3)o2)n1
The z-score of the first is lower: -0.566 for the first, -0.095 for the second.

Going from `Cc1cc(-c2cccnc2)c(C#N)c(SCc2cccc(F)c2)n1` to `C#CCn1c(=NC(=O)c2ccc(Br)s2)sc2cccc(OC)c21`, the z-score rises from -0.155 to 0.256.

Going from `COc1ccc(CCNC(=O)Cn2c(=O)oc3ccccc32)cc1OC` to `C=CCc1ccc(OCc2ccc(C(=O)OC)o2)c(OC)c1`, the z-score falls from 0.281 to -0.0312.

First: CCCCC(CCCC)=N/N=C/c1c(O)n(CC)c2cc(C3=NNC(=O)CC3)ccc12
Second: Cc1cccnc1Sc1c([N+](=O)[O-])ncn1C
The z-score of the first is lower: -0.351 for the first, -0.142 for the second.

First: Cc1cc(F)c(F)c(C(=O)N2CCOCC2)c1
Second: Cc1ccc(S(=O)(=O)Nc2ccc(SC(F)F)cc2)c(C)c1
The z-score of the first is higher: 0.431 for the first, 0.288 for the second.

With `O=C(O)Cn1c(O)c(C=Nc2ccccc2)sc1=S` the z-score was -0.223 and 0.51.
